# Test results published in PMC4336329 (PLoS ONE, 2015).
# About 14,000 (4.5%) of roughly 310,000 compounds showed an effect of 50% or more. The effect is printed as a negative number. Some of the results follow.
# Target: human ether-à-go-go-related gene (hERG) potassium channel (human, UniProt Q12809)
# Experiment: primary screen, population patch clamp on CHO cells stably expressing hERG
# 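Note: peak tail current of the secondary pulse compared with the same well before compound.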
# Sequence of human ether-à-go-go-related gene (hERG) potassium channel (Q12809 whole entry, looked up): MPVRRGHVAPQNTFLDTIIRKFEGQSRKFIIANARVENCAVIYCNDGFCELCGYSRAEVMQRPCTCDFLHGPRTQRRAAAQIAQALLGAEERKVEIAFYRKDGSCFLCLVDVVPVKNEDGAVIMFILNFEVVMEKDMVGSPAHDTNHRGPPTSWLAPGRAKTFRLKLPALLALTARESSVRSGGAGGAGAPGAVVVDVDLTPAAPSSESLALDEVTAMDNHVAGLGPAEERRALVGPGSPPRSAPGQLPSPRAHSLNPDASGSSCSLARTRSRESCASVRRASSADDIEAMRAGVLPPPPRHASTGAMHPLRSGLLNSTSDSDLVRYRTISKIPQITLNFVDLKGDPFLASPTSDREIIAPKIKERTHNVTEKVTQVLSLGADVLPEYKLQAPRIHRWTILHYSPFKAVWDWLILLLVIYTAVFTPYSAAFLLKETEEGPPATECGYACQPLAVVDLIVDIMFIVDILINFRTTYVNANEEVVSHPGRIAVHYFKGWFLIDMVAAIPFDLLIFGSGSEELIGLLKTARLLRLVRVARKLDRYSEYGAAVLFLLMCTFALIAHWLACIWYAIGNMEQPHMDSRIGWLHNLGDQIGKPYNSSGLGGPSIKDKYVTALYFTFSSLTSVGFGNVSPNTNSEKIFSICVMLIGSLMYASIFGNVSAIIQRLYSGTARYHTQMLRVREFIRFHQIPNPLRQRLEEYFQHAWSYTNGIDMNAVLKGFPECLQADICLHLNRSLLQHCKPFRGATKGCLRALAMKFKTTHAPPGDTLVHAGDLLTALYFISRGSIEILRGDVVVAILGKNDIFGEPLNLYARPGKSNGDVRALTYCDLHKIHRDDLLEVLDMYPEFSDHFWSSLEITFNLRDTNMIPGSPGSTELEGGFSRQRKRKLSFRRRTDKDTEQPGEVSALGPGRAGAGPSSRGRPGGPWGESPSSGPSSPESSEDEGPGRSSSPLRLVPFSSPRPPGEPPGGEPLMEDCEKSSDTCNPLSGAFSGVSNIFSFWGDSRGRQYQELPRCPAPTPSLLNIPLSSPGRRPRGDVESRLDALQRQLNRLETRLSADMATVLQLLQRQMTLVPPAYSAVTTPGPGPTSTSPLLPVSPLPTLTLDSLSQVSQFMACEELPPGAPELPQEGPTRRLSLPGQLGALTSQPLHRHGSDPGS
row,SMILES,"hERG current change (%, negative = inhibition) at 10uM [%]"
1,C=CCn1c(O)c(C(CC)=NCCc2c[nH]c3ccccc23)c(=O)[nH]c1=O,-34.2
2,Cc1ccc(C(=O)O)cc1NC(=O)c1ccc(Cn2nc(C)c(Cl)c2C)o1,38.7
3,O=C(N/N=C/c1ccc([N+](=O)[O-])o1)c1ccc2c(c1)OCO2,4.2
4,CC(NC(=O)Nc1ccc(F)cc1F)c1ccc2c(c1)OCO2 (stereo not drawn),-0.996
5,CC1CCN(c2nc(CN3CCCCC3)nc3scc(-c4ccccc4)c23)CC1,-75.5
6,O=C(CSc1ccc(Cl)cc1)N/N=C/c1ccc([N+](=O)[O-])o1,-12.5
7,CCOc1ccc(S(=O)(=O)NCCC(=O)OCC(=O)c2ccc[nH]2)cc1,14.6
8,O=C(NCc1ccco1)c1cnccn1,1.55
9,CCOc1ccc(N(CC(=O)NC2CCCC2)C(=O)CSc2nnc(COc3ccccc3)o2)cc1,-24.4
10,CCS(=O)(=O)N1CCN(S(=O)(=O)c2ccccc2)CC1.O=C(O)C(=O)O,-5.25
11,O=C1CCC(C(=O)Nc2ccccc2)N1 (stereo not drawn),22.1
12,O=C1OC(CO)CN1Cc1ccccc1 (stereo not drawn),12.3
13,CCOc1ccc(C(=O)CCC(=O)Nc2ncccc2O)cc1,5.51
14,O=C(Cc1ccc(Br)cc1)NCCN1CCOCC1,4.99
15,C[C@@H]1CCC(=O)N(C[C@@H](C)CC#N)CC1,32.9
16,Cc1ccc(OCC(=O)NNC(=O)Cn2nnc(-c3ccccc3)n2)cc1,16.8
17,Cc1[nH]n(-c2c(Cl)cc(Cl)cc2Cl)c(=O)c1C=Nc1ccc(S(=O)(=O)N2CCOCC2)cc1,-15.2
18,CCN1CCN(C(=O)COc2ccc(S(=O)(=O)N3CCOCC3)cc2C)CC1,17.9
19,COc1cc(C2NC(=O)N(C)C(C)=C2C(=O)OCc2ccccc2)cc(Br)c1O (stereo not drawn),-8.96
20,CCc1ccc2c(c1)c1nc(C)sc1n2CC,-5.89
21,COC(=O)c1ccc(/C=N/OCC(=O)NCc2ccc(F)cc2)cc1,17.9
22,Cc1nn2c(NCc3ccccn3)cc(C(C)(C)C)nc2c1-c1ccccc1,0.0853
23,C=CCc1cccc(/C=N/c2nc3ccccc3n2CC)c1O,7.53

row,SMILES,"hERG current change (%, negative = inhibition) at 10uM [%]"
1,CC(=O)OC1C2CCC1C([NH+]1CCCC1)CC2.[Cl-] (stereo not drawn),-2.35
2,CCOc1ccc(CNC(=O)Cn2ccc3cc(S(=O)(=O)N4CCCC4)ccc32)cc1,6.6
3,COc1ccc(C2=NS(=O)(=O)N(C)C(C(=O)Nc3cc(OC)c(OC)c(OC)c3)=C2)cc1,10.5
4,CN(C)c1nc(NCc2ccccc2)nc(SCC(N)=O)n1,7.76
5,CC1CCCN(C(=O)c2ccc(CNc3c(N4CCCCC4)c(=O)c3=O)cc2)C1 (stereo not drawn),4.19
6,CCOc1ccc(S(=O)(=O)N(C)c2ccc(OCC(=O)NCc3cccnc3)cc2)cc1,-21.5
7,Cn1c(SCC(=O)Nc2sccc2C#N)nnc1-c1ccccc1,-2.65
8,Cc1ccccc1N1C(=O)NC(=O)/C(=C\c2cc(C)n(C)c2C)C1=O,-3.79
9,O=C(Nc1ccccc1N1CCOCC1)c1ccc2ccccc2c1,-26.2
10,Cc1nnc(SCC(=O)Nc2ccccc2F)n1-c1ccc(F)cc1,-13
11,COc1ccc(C)cc1S(=O)(=O)N(C)CC(=O)N1CCC(C(N)=O)CC1,21.5
12,CC(=O)Nc1ccc(C2=NNC(=Nc3cccc(S(=O)(=O)N(C)C)c3)SC2)cc1,6.72
13,COc1ccc(CNC(=O)C2CCC(CNc3c(N4CCCCC4)c(=O)c3=O)CC2)cc1 (stereo not drawn),16.6
14,Cc1noc(C)c1CSCC(=O)Nc1ccc(S(=O)(=O)C(F)F)cc1,-29.4
15,COc1ccccc1CNC(=O)c1ccc(OC(C)C)cc1,17.6
16,COc1ccc(NS(=O)(=O)c2cccc(N/C(=N\S(=O)(=O)c3ccccc3)c3ccc(F)cc3)c2)cc1,3.23
17,COC(=O)C1=C(C)OC(N)=C(C#N)C1C1CCCCC1 (stereo not drawn),10.6
18,COc1ccc(-c2noc(N(C)CC(=O)Nc3cccc(C(F)(F)F)c3)n2)cc1,11.4
19,COc1ccc(N2C(=O)C3CCCN3C2=S)cc1 (stereo not drawn),23.8
20,COc1cccc(-c2cc(=O)c3cc(NC(=O)c4ccc(Cl)cc4)ccc3[nH]2)c1,14
21,O=C(NCCc1ccccc1Cl)C1CCC(=O)N(CC2CCCCC2)C1 (stereo not drawn),-16.7
22,COc1cc(NC(=O)C2CCN(c3cnccn3)CC2)cc(OC)c1,-5.64
23,Cc1ccc(NC(=O)C2CC(=O)N(Cc3ccco3)C2)cc1 (stereo not drawn),1.85

row,SMILES,"hERG current change (%, negative = inhibition) at 10uM [%]"
1,CCN(CC)c1ncc(C#N)c(N)n1,8.37
2,O=C(CN1CCN(c2ccccn2)CC1)Nc1cccc(S(=O)(=O)N2CCOCC2)c1,-12.3
3,Cc1c(N(C)CS(=O)(=O)O)c(=O)n(-c2ccccc2)n1C.[Na],16.5
4,CCC(C)N1CCN(C(=O)Cc2ccccc2)CC1.O=C(O)C(=O)O (stereo not drawn),8.01
5,O=C(/C=C/c1ccccc1)NCCS(=O)(=O)N1CCN(c2ccc(F)cc2)CC1,-30.7
6,NC(=O)c1cnn2c(-c3cccc(C(F)(F)F)c3)ccnc12,-2.33
7,COc1ccccc1OCC(=O)Nc1ccc2c(c1)OCO2,6.27
8,Cc1cc(NCCc2ccc(Cl)cc2)n2ncnc2n1,-39.1
9,CCCOc1ccc(N2C(=O)CC(SC(=NCC)NCC)C2=O)cc1 (stereo not drawn),11.9
10,CC(OC(=O)CN1C(=O)NC2(CCCC2)C1=O)C(=O)Nc1cccc(Cl)c1Cl (stereo not drawn),1.75
11,CSc1nnnn1-c1c(C)cc(C)cc1C,5.83
12,COCc1nnc(NC(=O)CC(c2ccccc2)c2ccccc2)s1,7.91
13,Cc1ccccc1OCCn1cc(C(=O)C(=O)N2CCOCC2)c2ccccc21,-6.7
14,CN1CCN(CCCCOc2ccc(F)cc2)CC1,0.265
15,Cc1ccc(NC(=O)C(C)c2cccc(C(=O)c3ccccc3)c2)cc1 (stereo not drawn),-5.39
16,Oc1ccc2ccccc2c1C=NC1CCCCC1,10.4
17,CCC(Sc1nc(N)c(NC(=O)c2ccco2)c(=O)[nH]1)C(=O)O (stereo not drawn),8.16
18,Cc1c(C(=O)N(Cc2ccccc2)Cc2cccnc2)cnn1-c1ccc(F)cc1,-43.9
19,O=S(=O)(CCN1CCOCC1)c1ccc(Oc2ccc(S(=O)(=O)CCN3CCOCC3)cc2)cc1,10
20,COc1cc(C2/C(=C(\O)c3ccc4c(c3)OCCO4)C(=O)C(=O)N2CCN2CCOCC2)cc(OC)c1OC (stereo not drawn),18.2
21,CCc1cc2c3c([nH]c2cc1S(=O)(=O)NCCCOC)CC(C)(C)CC3=O,6.76
22,COc1ccccc1NC(=O)Nc1nc(C(C)(C)C)cs1,15.5
23,CS(=O)(=O)N1N=C(c2ccc(Br)cc2)CC1c1ccc2c(c1)OCO2 (stereo not drawn),-3.15

row,SMILES,"hERG current change (%, negative = inhibition) at 10uM [%]"
1,Cc1cc(C)cc(C(=O)NC2CC(C)(C)NC(C)(C)C2)c1,2.93
2,COc1ccc(NC(=O)Cn2cnc3ccccc3c2=O)cc1OC,34.3
3,CCCCNC(=O)CC(NS(=O)(=O)c1ccc(C)cc1)c1ccco1 (stereo not drawn),4.82
4,Cc1ccc(O)c(C(=O)c2cc(C#N)c3nc4ccccc4n3c2)c1,19.9
5,Cc1ccc(NC(=O)Cc2c(O)c3ccccc3[nH]c2=O)c(C)c1,-1.34
6,Cc1ccccc1NC(=O)COc1ccc(Br)cc1CNCCCO.Cl,-15.6
7,COc1ccc(CN2CCCC(C(=O)c3cccc(OC(C)C)c3)C2)cc1Cn1cccn1 (stereo not drawn),-69.9
8,COc1ccccc1N1CCN(C(=O)CSc2ncccc2-c2nc3ccccc3[nH]2)CC1,-23.7
9,CN(C)C(=O)NCc1ccc(S(N)(=O)=O)cc1,12.7
10,CC1=C(C)C(=O)N(C(C)CCc2ccccc2)C1=O (stereo not drawn),4.9
11,O=[N+]([O-])c1cccc(Cl)c1N1CCOCC1,-3.01
12,Cc1ccccc1CCN(CC(=O)NCc1ccc(F)cc1)C(=O)c1csnn1,-14.1
13,O=C(NCCN1CCOCC1)C1CCN(c2ncnc3c2sc2cccc(F)c23)CC1,-25.6
14,Nc1ccncc1Cl,4.66
15,O=P(CO)(Cc1ccccc1)Cc1ccccc1,5.29
16,Cc1ccc(C)c(NC(=O)C2Cc3ccccc3CN2C(=O)OCc2ccccc2)c1 (stereo not drawn),-2.01
17,Cc1ccc(NC(=O)C2CCCN(C(=O)Nc3ccc(F)cc3)C2)cc1 (stereo not drawn),0.441
18,CC1=CC(c2ccccc2)n2nc(NC(=O)CCC(=O)O)nc2N1 (stereo not drawn),9.52
19,O=C(CSc1nnc(-c2ccc(Br)cc2)o1)Nc1cccc(C(=O)O)c1,6.73
20,CC(=O)Nc1ccc(S(=O)(=O)N2CCN(c3ccc(C)c(Cl)c3)CC2)cc1,5.31
21,CCN(CC(=O)Nc1c(F)cccc1F)C(=O)c1ccc(N2C(=O)c3ccccc3C2=O)cc1,1.38
